These results are taken from ChEMBL document CHEMBL4888484, “Replenishing the malaria drug discovery pipeline: Screening and hit evaluation of the MMV Hit Generation Library 1 (HGL1) against asexual blood stage Plasmodium falciparum ,using a nano luciferase reporter read-out” (2022).

In all, about 150,000 compounds went through this assay and about 540 (0.36%) showed an effect of 50% or more. The list shows a part of the results.

For this assay, the system named is Plasmodium falciparum. As to the kind of experiment: Primary screen in NF54 nanoGlo assay, in single point, at 2uM, 72h; a lower Z score goes with more inhibition. In kind it is functional, Erythrocyte. Conditions: timepoint 72 hour.
On to `CC(=O)N1CCCN(c2ccc(F)cc2NC(=O)N2CCC[C@@H]2CO)CC1`, for which the “% Inhibition” value is reported as -2% and the Z score was 0.31.
The matching figures for `O=C(NC1CC1)c1cccc(S(=O)(=O)N2CCOCC23CCC3)c1`: 19% and -2.44.
On the same counts, the results for `CO[C@@H](C)CNS(=O)(=O)c1c(Cl)ccc(F)c1F` are -15% and 1.23.
As for `Nc1nc(N2CCN(Cc3ccc(Cl)o3)CC2)cc(=O)[nH]1`, the “% Inhibition” value is recorded as -9% and the Z score amounted to 1.15.
On the same counts, the results for `O=C1CC2(CCN(CCOCc3ccccc3)CC2)CN1` are 10% and -0.92.
On the same counts, the results for `O=C1C2C(c3ccccc3)C=CC(c3ccccc3)C2C(=O)N1CCc1ccccc1` (stereo not drawn) are -1% and 0.17.
The matching figures for `Cc1cnc(CCN(C)Cc2cnc3c(C)cccn23)s1`: -5% and 0.45.
As to `Nc1nnnn1CC(=O)N[C@H]1CC(=O)Nc2ccccc21`, the “% Inhibition” value was 10% and the Z score is given as -1.71.
On the same counts, the results for `CO[C@@]12CC[C@@H](O)C[C@@H]1N(C(=O)c1ccc(-c3ccco3)cc1)CC2` are -1% and 0.12.
The matching figures for `CCOc1ccccc1NC(=O)c1cn2c(n1)CCCC2`: -7% and 1.13.
The matching figures for `Cc1csc(CN(C)Cc2ccc(CN(C)C)cc2)n1`: 0% and -0.03.
For the molecule `FC1(F)CC(CN2CCc3[nH]ncc3C2)C1`, the “% Inhibition” value is -1% and the Z score is recorded as 0.16.
The matching figures for `CN(Cc1ccncc1)c1ccc(Cl)c(C#N)n1`: -8% and 1.12.
Turning to `CC(=O)Nc1cc(Cl)c(NC(=O)[C@H]2CCCO2)c(Cl)c1`, the “% Inhibition” value was -6% and the Z score came to 0.81.
On the same counts, the results for `CCCC(=O)N1CCN(c2cc(NCC)nc(C)n2)CC1` are 0% and 0.01.
On the same counts, the results for `Cc1cnn(CC(=O)NCCn2c(C)cnc2C2CC2)c1` are -7% and 1.2.
On the same counts, the results for `N#CCN(CC=Cc1ccccc1)C1CC1` are -17% and 2.63.
As for `Cc1nnc2n(CCOc3ccc(F)cc3)c3ccccc3n2c1=O`, the “% Inhibition” value is -8% and the Z score is reported as 1.54.
On the same counts, the results for `COc1c(F)c(F)cc(C(=O)N2CC3CC2CS3(=O)=O)c1F` (stereo not drawn) are -10% and 1.19.
The matching figures for `CCC(C(N)=O)N1CCCC1c1cccc(N(C)C)c1` (stereo not drawn): -3% and 0.53.
The matching figures for `CC1CN(C(=O)c2ccc3[nH]c(=O)[nH]c3c2)C1c1ccccc1` (stereo not drawn): -3% and 0.52.
`N#Cc1cccnc1NCc1cccnc1-n1cnc2ccccc21`: the “% Inhibition” value is given as 4% and the Z score is -0.59.
On to `CN(Cc1cnccn1)C(=O)NC1CCCC1c1ccc(Cl)cc1` (stereo not drawn), for which the “% Inhibition” value was -29% and the Z score is 3.34.
On the same counts, the results for `NC(=O)c1cnn(CC(=O)Nc2cccc(C(=O)NC3CC3)c2)c1` are 0% and 0.01.
On the same counts, the results for `O=C(CC1CCOCC1)NC1CNCCC1c1ccc(F)c(F)c1` (stereo not drawn) are -10% and 1.58.
Consider `Cc1nc2n(n1)CCC[C@@H]2NC(=O)NCc1csc(C(C)(C)C)n1`, for which the “% Inhibition” value stood at 1% and the Z score is given as -0.08.
As to `O=C1CCCN1c1ccc(NS(=O)(=O)c2cccnc2)cc1`, the “% Inhibition” value is listed as -17% and the Z score was 2.52.
On the same counts, the results for `CCc1nc2ccc(-c3noc(-c4ccsc4)n3)cc2n1CC` are -19% and 3.3.
The matching figures for `Fc1ccc(CN2CCC3(CCO3)CC2)cc1F`: -8% and 1.24.
With `C[C@@H]1CN(C[C@@H]2CN(C(=O)CCc3cccs3)C[C@@H]2CO)C[C@H](C)O1`, the “% Inhibition” value is on record as -3% and the Z score amounted to 0.3.
The matching figures for `CNc1snc(C)c1C(=O)OCc1cn2ccccc2c1C#N`: -9% and 1.78.
On the same counts, the results for `C/C(=C/c1scc(-c2ccccc2)[n+]1-c1ccccc1)Nc1ccc(C)cc1` are -7% and 1.33.
Turning to `COc1ccc(NC(=O)Cn2ccnc2-c2ccnc(N3CCOCC3)c2)cc1OC`, the “% Inhibition” value was determined as 11% and the Z score is reported as -1.28.
The matching figures for `O=C(NC[C@H]1CCCCS1(=O)=O)N1CC(F)C1`: -1% and 0.21.
On the same counts, the results for `Cc1ccc(NS(=O)(=O)c2cc(-c3nc(C)cs3)n(C)c2C)c(C)c1` are -1% and 0.09.
On the same counts, the results for `CC1=C(C(=O)Nc2ccc3nc(N4CCCC4)sc3c2)CCCO1` are -9% and 1.24.
For the molecule `CC(C)N(C)S(=O)(=O)NCCCn1ccccc1=O`, the “% Inhibition” value is given as -9% and the Z score was 1.2.
As for `Cc1cccc(CN2CCN(C)[C@H](c3ccccc3)C2)n1`, the “% Inhibition” value turned out to be 1% and the Z score is listed as -0.15.
Consider `CN(c1cccc(C(=O)NCc2ccc(N3CCOCC3)cc2)c1)S(C)(=O)=O`, for which the “% Inhibition” value is on record as -4% and the Z score was 0.5.
On the same counts, the results for `Cc1occc1C(=O)NCC(=O)NCC1(O)CCCCCC1` are -9% and 1.19.
On the same counts, the results for `CCOc1ccccc1Cn1nnnc1N1CCCOCC1` are 11% and -1.1.
On the same counts, the results for `O=C(CCCS(=O)(=O)Cc1ccccc1)Nc1ccc(F)cc1` are -3% and 0.58.
Regarding `Nc1nc(N2CCN(c3ccc(F)c(Cl)c3)CC2)cc([C@H]2C[C@@H](N)C2)n1`, the “% Inhibition” value was 49% and the Z score is -3.16.
For the molecule `CC(O)CNC(=NCC1CCCO1)NCc1ccccc1` (stereo not drawn), the “% Inhibition” value is reported as -5% and the Z score was found to be 0.66.

One may read the % Inhibition as the change of the read-out against control, counted positive when it falls.
